# According to PubChem BioAssay (Tox21):
# Inconclusive means that the source gave no clear call. Such entries were picked first, then a sample of the others. Potencies of inconclusive entries are left out as doubtful fits. The source made the active and inactive calls. Calls follow the shape of the dose curve; as a rule, active = well fitted activation curve with a large enough effect in the signal ratio in the repeat runs (not every such curve was filed as active); inconclusive = weak or mixed curves; inactive = flat fitted curve, though single readings scatter; the % refers to the signal ratio.
# Test: qHTS assay to identify small molecule agonists of the TGF-beta/Smad signaling pathway (AID 1346859)
# Conditions: SBE-bla HEK293T, TGF-beta/Smad beta-lactamase reporter, 5 h; series mostly up to 76.8 µM
# Method in brief: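 Reporter line: HEK 293T with stably integrated SBE-controlled beta-lactamase. Compound exposure lasts 5 hr at 37 C and 5% CO2; substrate loading follows for 2 hr at room temperature, with emission read at 460 and 530 nm.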
# Potency is read from the fitted curve at half-maximal effect; tags tell the direction and shape of the fitted curve or compound fluorescence and quenching.
row,Structure (SMILES),Potency
1,COc1ccc2c(c1)C(=O)N(CCc1ccc(S(=O)(=O)NC(=O)NC3CCCCC3)cc1)C(=O)C2(C)C,"inconclusive [rising, partial curve]"
2,O=C1NCCN1,inactive
3,NC(=O)Cn1c(=O)cc(CCN2CCN(c3nccc4sccc34)CC2)c2ccc(F)cc21,"inconclusive [rising, partial curve, poor fit]"
4,O=S(=O)(O)c1cc(Cl)c(Cl)cc1Cl,"inconclusive [activator, single point]"
